Results as given in article PMC6919601, “Identification of Plasmodium dipeptidyl aminopeptidase allosteric inhibitors by high throughput screening” (PLoS ONE, 2019).
About 230 (0.21%) of roughly 110,000 compounds showed an effect of 50% or more. The list shows a part of the results.

Each compound was assayed against DPAP1 (Plasmodium falciparum, UniProt Q8IIJ9) (assay: primary screen, percent inhibition; read by cleavage of a fluorogenic dipeptide substrate; higher = more effect of the substance).
Sequence of DPAP1 (Q8IIJ9 whole entry, looked up): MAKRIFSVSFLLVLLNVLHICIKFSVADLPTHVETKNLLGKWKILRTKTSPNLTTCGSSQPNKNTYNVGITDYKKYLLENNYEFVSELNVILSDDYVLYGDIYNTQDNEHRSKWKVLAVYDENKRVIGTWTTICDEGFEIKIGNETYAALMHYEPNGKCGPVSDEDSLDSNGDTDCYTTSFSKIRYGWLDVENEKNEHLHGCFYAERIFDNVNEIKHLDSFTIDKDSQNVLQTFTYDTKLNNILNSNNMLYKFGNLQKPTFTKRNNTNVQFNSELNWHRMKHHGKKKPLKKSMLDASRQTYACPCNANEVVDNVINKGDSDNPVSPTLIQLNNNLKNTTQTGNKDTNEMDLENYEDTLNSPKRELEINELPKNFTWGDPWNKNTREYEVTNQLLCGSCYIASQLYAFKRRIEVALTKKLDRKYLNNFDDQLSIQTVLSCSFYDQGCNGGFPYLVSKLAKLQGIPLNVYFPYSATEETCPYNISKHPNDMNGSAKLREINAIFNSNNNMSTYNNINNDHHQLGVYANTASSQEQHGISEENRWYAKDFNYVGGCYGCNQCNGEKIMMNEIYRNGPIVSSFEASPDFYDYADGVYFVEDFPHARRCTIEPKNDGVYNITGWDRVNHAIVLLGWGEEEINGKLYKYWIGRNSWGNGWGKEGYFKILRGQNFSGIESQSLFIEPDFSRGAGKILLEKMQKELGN
Set-up: species or system P. falciparum D10 trophozoite lysates; single well
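Further: 30 min substrate incubation versus DMSO and 10 µM JCP410 controls.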

| SMILES | % Inhibition @ 10 uM [%] |
| --- | --- |
| CSc1cccc(-c2cccc(C(=O)N[C@@H](CC(C)C)C(=O)NCC#N)c2)c1 | -0.207 |
| O=c1c(-c2ccccc2)c(N2CC3CC(C2)c2cccc(=O)n2C3)c1=O (centres unmarked) | -1.11 |
| Clc1ccc(C2CC(c3ccco3)n3ncnc3N2)cc1Cl (centres unmarked) | -4.52 |
| COc1ccc2[nH]c(N3CCCCC3)nc2c1 | 2 |
| Cc1nc2cc(/C=C/C(=O)c3nc4ccccc4s3)ccc2n1-c1ccccc1 | -3.44 |
| Clc1ccc(CC2=NCCN2)cc1 | -1.99 |
| COc1ccc(NC(=O)CN(c2cccc(Cl)c2Cl)S(=O)(=O)c2ccccc2)c(OC)c1 | -5.13 |
| O=C(NCC1CCCO1)c1ccc(NC(=O)c2ccc(Br)cc2)cc1 (centres unmarked) | 5.54 |
| CCOC(=O)c1cc(C)n(S(=O)(=O)c2ccc(C)cc2)c1C | 1.63 |
| CCN(CC)S(=O)(=O)c1ccc(NC(=O)COc2ccc(C)cc2)cc1 | -8.01 |
| CCOc1ccc(CNC(=S)Nc2ccccc2)cc1Cl | -2.44 |
| O=C(Nc1ccccc1Br)c1ccccc1Cl | -3.72 |
| CCC1CCCCN1CCCNC(=O)C1CCCN(c2nn3c(=O)cc(C)nc3s2)C1 (centres unmarked) | 3 |
| CCc1ccc(CNC(=O)C2CC(=O)N(Cc3ccc(OC)cc3)C2)cc1 (centres unmarked) | -1.79 |
| COc1ccccc1-c1nc2nc(C)cc(O)n2n1 | 4.54 |
| CC(C)CC(C(=O)NCC#N)c1nc(-c2cccc(-c3csc(N4CCN(C)CC4)n3)c2)cs1 (centres unmarked) | -0.0222 |
| CN1C(=O)C(=Cc2ccc(Cl)cc2Cl)C(=O)N(C)C1=S | -0.807 |
| O=C(Cn1ncc2c(=O)oc3ccccc3c21)NCc1ccc(F)cc1 | -6.62 |
| O=C(NCCc1ccc(Cl)cc1)c1ccc2nc(N3CCCCC3)sc2c1 | -0.637 |
| O=c1cccc2n1C[C@H]1C[C@@H]2CN(Cc2ccccc2Cl)C1 | -1.85 |
| COc1ccc2oc(=O)cc(CN3CCN(Cc4ccc(F)cc4)CC3)c2c1 | 0.425 |
| COc1ccc(OCC(=O)NC2CCCCCCC2)cc1 | 0.324 |
| COc1ccccc1CNC(=O)C1CC(=O)N(C2CCCC2)C1 (centres unmarked) | 3.79 |
| Cc1oc(-c2ccccc2Cl)nc1CS(=O)(=O)CC(=O)N1CCC(N2CCCCC2)CC1 | 0.44 |
| COc1ccc(C2C(C(=O)N3CCOCC3)c3ccccc3C(=O)N2Cc2ccc(F)cc2)cc1 (centres unmarked) | -0.363 |

| SMILES | % Inhibition @ 10 uM [%] |
| --- | --- |
| CC(=O)C(C#N)NC(=O)[C@H](CC(C)C)NC(=O)c1ccc(N2CCOCC2)cc1 (some centres unmarked) | 1.7 |
| COc1cccc(CN2C(=O)CN(C3CCC(C)CC3)C(=O)C2c2ccc(OC)c(OC)c2)c1 (centres unmarked) | -4.06 |
| Cc1cc(C(=O)O)ccc1-c1ccc(CO)o1 | -2.97 |
| C=CCOc1ccc2c(=O)c(Oc3cccc(C)c3)coc2c1 | -3.1 |
| Cc1ccccc1Cn1c(C(=O)O)c(C=O)c2ccccc21 | 1.63 |
| Cc1onc(-c2ccccc2)c1C(=O)Nc1sc2c(c1C(N)=O)CCCCCC2 | -0.949 |
| CCCCc1ccc(C2=N/C(=C\c3ccc4c(c3)OCO4)C(=O)O2)cc1 | 3.58 |
| Cc1nc2sccn2c1C(=O)Nc1nc(-c2ccc(Cl)cc2)cs1 | 4.11 |
| CC(=O)c1ccc(NC(=O)COc2cccc(C)c2)cc1 | 0.392 |
| c1ccc2c(c1)c(NCc1ccc3c(c1)OCO3)nn1nnnc21 | -6.26 |
| CCOC(=O)N1CCN(CN2C(=O)/C(=N/c3ccc4ccccc4c3)c3ccccc32)CC1 | -11.2 |
| COC(=O)C1=C(C)N=c2s/c(=C/c3ccco3)c(=O)n2C1c1ccc(OC)cc1 (centres unmarked) | 6.51 |
| CCOCCCNC(=O)C(c1ccc(Cl)cc1)N(Cc1cccs1)C(=O)c1ccccn1 (centres unmarked) | -0.363 |
| Cc1cc(C)c2nc3s/c(=C\c4ccc(N(C)C)cc4)c(=O)n3c2c1 | 0.345 |
| Clc1ccc(-c2ccc(CN3CCOCC3)o2)cc1 | -7.18 |
| COc1ccc(CNC(=O)Cc2ccc(-n3cccc3)cc2)cc1 | 1.2 |
| COc1cc(C2NC(=O)N(C)C(C)=C2C(=O)OCCOc2ccccc2)ccc1O (centres unmarked) | 1.25 |
| O=C(CCC1CCCC1)NCc1cccs1 | -3.26 |
| CCn1c(C)cc(/C=C2\NC(=O)N(CC(=O)Nc3cccc(C)c3)C2=O)c1C | 4.11 |
| O=C(NCCN1CCc2ccccc2C1)C1CCN(S(=O)(=O)N2CCCCC2)CC1 | -3.12 |
| CCOC(=O)N1CCN(C(=O)Cn2cnc3c(nnn3Cc3ccc(F)cc3)c2=O)CC1 | -2.16 |
| N#Cc1ccccc1N/C=C/C(=O)c1cccs1 | 1.03 |
| Cc1cc(C)nc(SCc2nnc(SCC(N)=O)n2-c2ccccc2)n1 | -3.68 |
| Cc1nn(CCCC(=O)NCCc2cccs2)c(=O)c2c1sc1ccccc12 | 23.3 |
| CC[C@H](NC(=O)[C@H](CS(=O)(=O)Cc1ccccc1OC(F)F)/N=C/NS(=O)(=O)c1ccccc1)C(=O)c1nc2ccccc2o1 | -3.14 |

| SMILES | % Inhibition @ 10 uM [%] |
| --- | --- |
| COc1ccc(-c2cc(C(=O)Nc3cccnc3)no2)cc1 | 6.29 |
| Oc1c2c(nc3nc(-c4cccnc4)nn13)CCC2 | -4.19 |
| CCOC(=O)c1c(C)n(C)c2ccc(OCC)cc12 | -1.92 |
| CCCNC(=O)CN(C1CCCCC1)S(=O)(=O)c1ccc(F)cc1 | -0.185 |
| COc1cccc(CNC(=O)CNC(=S)N(Cc2cccs2)C2CCCCC2)c1 | -0.406 |
| COc1cccc(/C=C/C(=O)c2c(C)cc(C)nc2O)c1O | 5.45 |
| CC(=O)N1N=C(c2ccc(C)o2)CC1c1ccc(F)cc1 (centres unmarked) | -2.6 |
| COCCNC(=O)c1cc(C)nc2c1c(C)nn2-c1ccccc1 | 3.75 |
| Cc1ccc(-n2nc(C)c3c(C(F)(F)F)cc(-c4ccncc4)nc32)cc1 | -5.4 |
| COCCN1C(=O)C(O)=C(C(=O)c2ccc(S(=O)(=O)N(C)C)cc2)C1c1cccc(Cl)c1 (centres unmarked) | -1.6 |
| CC(C)N1CCc2nc(S)nc(O)c2C1 | 4.16 |
| Cc1ccccc1NC(=O)c1cccc(S(=O)(=O)N2CCCCC2)c1 | -1.74 |
| CC(C)(C)NCC(=O)NCC12CC3CC(CC(C3)C1)C2 | -2.48 |
| CC1CCN(C(=O)C2CCCN2C(=O)OCc2ccccc2)CC1 (centres unmarked) | 2.44 |
| NC(=O)c1cc(S(=O)(=O)NCc2ccc(F)cc2)cs1 | -6.82 |
| CCc1nn(-c2cc(Oc3ccc(F)cc3)nc(SC)n2)c(N)c1C#N | -1.64 |
| O=[N+]([O-])c1ccc(Cl)c(CN2CCCCCCC2)c1 | 7.03 |
| O=C(COc1ccc(S(=O)(=O)N2CCOCC2)cc1)N1c2ccccc2Sc2ccccc21 | 2.48 |
| CC(C)CN(CC(C)C)C(=O)CN1C(=O)c2ccccc2C1=O | -2.89 |
| CC(=O)Nc1ccc(NC(=O)c2ccc(COc3ccccc3Br)o2)cc1 | 0.931 |
| O=C(CSc1nc2ccccc2s1)Nc1c(-c2ccccc2)nc2ccccn12 | 2.7 |
| CN(C(=O)c1ccc([N+](=O)[O-])o1)c1ccccc1 | -1.22 |
| O=C(NCc1ccccc1Br)C1CCCN(c2nnc(N3CCCC3=O)s2)C1 (centres unmarked) | -4.68 |
| CO/C(O)=C1\C(C)=NC2=C(C(=O)CC(C)(C)C2)C1c1ccc(C)o1 (centres unmarked) | 5.7 |
| COc1ccccc1NC(=O)c1ccc(-c2ccccc2)cc1 | -6.39 |

| SMILES | % Inhibition @ 10 uM [%] |
| --- | --- |
| CN(CCOC(=O)c1ccco1)C(C)(C)C | 3.43 |
| COc1ccc(C2C=C(c3ccc(Br)s3)Nc3nnnn32)cc1OC (centres unmarked) | -1.62 |
| COc1ccc(OC)c(C2C3=C(O)CC(C)(C)CC3=Nc3nc(-c4cccc(C)c4)nn32)c1 (centres unmarked) | 0.275 |
| COC(=O)c1sc2c(Cl)c(OC)ccc2c1Cl | -0.687 |
| Cc1ccc(C(=O)N2CCc3c([nH]c4ccccc34)C2)cc1 | -15.9 |
| CCOC(=O)c1c(C)oc2ncnc(NC3CCCCC3C)c12 (centres unmarked) | 9.28 |
| OC1(c2ccccc2)CN2CCCCCC2=[N+]1c1ccc(Br)cc1 (centres unmarked) | -5.6 |
| Cc1cc(/C=C2\C(=N)N3N=C(N4CCOCC4)SC3=NC2=O)c(C)n1-c1cccc2ccccc12 | 6.38 |
| COc1ccc(-c2nc(CS(=O)CC(=O)NC(C)CCc3ccccc3)c(C)o2)cc1OC (centres unmarked) | -6.64 |
| CN1C(=O)CC(C(=O)O)S/C1=N/c1ccc(OC(F)(F)Cl)cc1 (centres unmarked) | -3.95 |
| COC(=O)C1=C(C)N(Cc2cccnc2)C(=O)/C1=C\c1sccc1C | 0.131 |
| COC(=O)c1cc2c(=O)n3cc(C)ccc3nc2n(Cc2ccco2)c1=N | 0.279 |
| Cc1nn(C)c(C)c1NC(=O)c1ccc(-c2ccccc2)cc1 | -3.14 |
| Nc1cc(C(=O)Nc2ccccc2C(=O)O)ccc1Cl | 0.0265 |
| O=C1Cc2ccccc2C(c2ccccc2Br)N1 (centres unmarked) | -0.744 |
| CCOC(=O)N1CCC(N2Cc3cccc(C(=O)NCc4ccc5c(c4)OCO5)c3C2=O)CC1 | -0.499 |
| Cc1c(NC(=O)C23CC4CC(CC(C4)C2)C3)c(=O)n(-c2ccccc2)n1C | 0.815 |
| Cc1ccccc1[C@@H]1C(C#N)=C(N)S[C@H]1C(=O)c1ccccc1 | -2.07 |
| CCOC(=O)c1c(-c2ccccc2)csc1NC(=O)c1cc(=O)c2cc(C)ccc2o1 | -3.24 |
| N#Cc1cc2c(N)c(C(N)=O)sc2nc1N | -3.77 |
| COc1ccccc1Oc1nc2c(c(=O)n(Cc3ccc(Cl)cc3Cl)c(=O)n2C)n1C | 0.279 |
| CC(=O)C1=C(O)C(=O)N(CCN(C(C)C)C(C)C)C1c1ccc(O)cc1 (centres unmarked) | -0.884 |
| Cc1nc2cc(-c3cccc(F)c3)nn2c(C)c1CCC(=O)NC1CCN(Cc2ccccc2)CC1 | 1.05 |
